{"source": "PubChem BioAssay AID686978", "about": "(National Center for Advancing Translational Sciences (NCATS), 2013)", "note": "Out of some 420,000 compounds screened, about 64,000 (15%) were called active. This list was built around the results that the source calls inconclusive (neither active nor inactive); the mix of calls is not that of the screen. Calls follow the shape of the dose curve; as a rule, active = well fitted inhibition curve with a large enough effect; inconclusive = small, poorly fitted or top-dose-only effect; inactive = flat fitted curve, though single readings scatter. Potencies of inconclusive entries are left out as doubtful fits. % is scaled to controls: 0 for no effect and ±100 for the full control effect; potency is read from the fitted curve at half-maximal effect; tags tell the direction and shape of the fitted curve."}
{"assay": "qHTS for Inhibitors of human tyrosyl-DNA phosphodiesterase 1 (TDP1): qHTS in cells in absence of CPT; also: nearly all actives have a fitted effect of over 55% in size", "conditions": "DT40 Tdp1-/- hTDP1 cells, no CPT, ATP luminescence, 48 h; activity change, negative = growth inhibition: at 46.2 µM (top of the series) unless noted", "procedure,_shortened": "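Chicken DT40 Tdp1-/- cells complemented with human TDP1, screened without camptothecin (DMSO vehicle only), 400 cells/well. Compounds pin-transferred, cells incubated at 37 °C for at least 48 hr. Growth read as ATP-dependent luminescence (CellTiter-Glo, 30 min at RT).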"}
{"smiles": "CNC(=O)c1ccsc1NC(=O)c1sc2ccccc2c1Cl", "Potency": "inconclusive [inhibitor, single point]"}
{"smiles": "C[C@H](CO)N1C[C@H](C)[C@@H](CN(C)C(=O)Nc2ccc(C(F)(F)F)cc2)Oc2c(NC(=O)CCC(F)(F)F)cccc2C1=O", "Potency": "inconclusive [inhibitor, partial curve, poor fit]"}
{"smiles": "Cc1c(CN2CCN(C)C(CCO)C2)[nH]c2c(Cl)cccc12", "note": "(stereo unspecified)", "Potency": "inconclusive [inhibitor, single point]"}
{"smiles": "O=C(NCc1ccccc1Cl)c1cnc(N2CCCCC2)c2ccccc12", "Potency": "inconclusive [inhibitor, single point]"}
{"smiles": "COc1ccc(C(C)NC(=O)Cc2ccc(Br)cc2)cc1", "note": "(stereo unspecified)", "Potency": "inconclusive [inhibitor, partial curve]"}
{"smiles": "CCOC(=O)c1c(NC(=O)CN2CCC(C)CC2)sc(C)c1C", "Potency": "inconclusive [inhibitor, single point]"}
{"smiles": "COc1ccccc1NC(=O)c1oc2ccccc2c1NC(=O)c1ccc(S(=O)(=O)N(C)C)cc1", "Potency": "inconclusive [inhibitor, single point]"}
{"smiles": "CCc1ccc(C2C(C#N)=C(N)N(N(C)C)C3=C2C(=O)CCC3)s1", "note": "(stereo unspecified)", "Potency": "inconclusive [inhibitor, single point]"}
{"smiles": "COCCn1c(C)cc(C(=O)CSc2nc(C)c(C)c(C)n2)c1C", "Potency": "active: 23.1 µM"}
{"smiles": "O=C1NC2(CCCCCC2)C(=O)N1Cc1ccccc1Cl", "Potency": "inactive"}
{"smiles": "O=C1CCCCC1Nc1ccc([N+](=O)[O-])cc1", "note": "(stereo unspecified)", "Potency": "inconclusive [inhibitor, partial curve, poor fit]"}
{"smiles": "Cc1cccc(C2c3[nH]c4ccccc4c3CCN2C(=O)c2cn(C)c3ccccc3c2=O)n1", "note": "(stereo unspecified)", "Potency": "inconclusive [inhibitor, single point]"}
{"smiles": "NC(=O)CCN1CCCCC1", "Potency": "inactive"}
{"smiles": "CS/C(=N\\S(=O)(=O)c1ccccc1)c1ccccc1", "Potency": "inactive"}
{"smiles": "COc1ccc(NC(=O)CN(C)C(=O)c2cccc(S(=O)(=O)N3CCCc4ccccc43)c2)cc1", "Potency": "inactive"}
{"smiles": "CC[C@]12c3[nH]c4cc(CCC(=O)N(C)C)ccc4c3CCN1C(=O)[C@@H](CC(=O)NCCC1=CCCCC1)C[C@@H]2C(=O)N1CCN(C(=O)c2ccco2)CC1", "Potency": "inactive"}
{"smiles": "COc1cc(-c2nc3n(n2)C(c2ccc(F)cc2)C(C(N)=O)=C(C)N3)cc(OC)c1OC", "note": "(stereo unspecified)", "Potency": "inconclusive [inhibitor, single point]"}
{"smiles": "COc1ccc(OC)c(CNC(=O)c2cc(-c3ccc(Cl)s3)nc3ccccc23)c1", "Potency": "active: 9.2 µM"}
{"smiles": "CC(=O)c1ccc(OCCCC(=O)NCC(c2ccco2)N(C)C)cc1", "note": "(stereo unspecified)", "activity change, negative = growth inhibition": "inconclusive: 1.95% [inhibitor]"}
{"smiles": "COc1cc(C(=O)NC(=S)Nc2csc(-c3ccc(F)cc3)n2)cc(OC)c1OC", "Potency": "inconclusive [inhibitor, single point]"}
{"smiles": "C=CCOC(=O)c1ccc(N2CCN(c3ccccc3)CC2)nc1", "Potency": "inactive"}
{"smiles": "CCOC(=O)c1c(Nc2nc(C)c(C(=O)NC)s2)sc(C)c1C", "Potency": "inconclusive [inhibitor, single point]"}
{"smiles": "Cc1ccc(NC(=O)CSC2=C(C#N)C(c3ccc4c(c3)OCO4)CC(=O)N2)cc1C", "note": "(stereo unspecified)", "Potency": "inconclusive [inhibitor, partial curve]"}
{"smiles": "CSC1=C(C#N)C(c2ccc(C)cc2)C2=C(CCCC2=O)N1", "note": "(stereo unspecified)", "Potency": "inconclusive [inhibitor, single point]"}
{"smiles": "O=C(NCCN1CCOCC1)c1cc(-c2ccccc2)on1", "Potency": "inconclusive [inhibitor, partial curve]"}
{"smiles": "O=C(O)CNc1nc(-c2ccccc2)c2cc([N+](=O)[O-])ccc2n1", "Potency": "inconclusive [inhibitor, partial curve]"}
{"smiles": "CCn1c(=O)c(C(=O)NCCc2ccc(Cl)cc2)c(O)c2ccccc21", "Potency": "inconclusive [inhibitor, single point]"}
{"smiles": "CC(C)=CCN1CCN(Cc2cc(CC(C)C)n[nH]2)CC1CCO", "note": "(stereo unspecified)", "Potency": "inactive"}
{"smiles": "Cc1ccc(NC(=O)c2nc(S(=O)(=O)Cc3cccc(C)c3)ncc2Cl)cc1", "Potency": "active: 0.651 µM"}
{"smiles": "CCc1nc(Nc2ccc(O)cc2)c2oc3ccccc3c2n1", "Potency": "inconclusive [inhibitor, single point]"}
{"smiles": "Cc1coc2cc3oc(=O)c(CCC(=O)NCc4ccccn4)c(C)c3cc12", "Potency": "inconclusive [inhibitor, single point]"}
{"smiles": "CCn1c(Sc2ccc([N+](=O)[O-])cn2)nnc1-c1ccco1", "Potency": "active: 2.06 µM"}
{"smiles": "Cn1c(=O)c2nc(SCCO)n(C)c2n(C)c1=O", "Potency": "inconclusive [inhibitor, single point]"}
{"smiles": "O=C1OCC(O)=C1Cc1ccccc1", "Potency": "inconclusive [inhibitor, partial curve]"}
{"smiles": "CNC(=O)CN1C(=O)NC2(CCc3ccccc3C2)C1=O", "note": "(stereo unspecified)", "Potency": "inactive"}
{"smiles": "CCc1c(C(=O)NNC(=S)NCC2CCCO2)csc1C", "note": "(stereo unspecified)", "Potency": "inconclusive [inhibitor, single point]"}
{"smiles": "Cn1c(=O)c2sccc2n2c(CCC(=O)Nc3ccc(F)cc3)nnc12", "Potency": "inconclusive [inhibitor, single point]"}
{"smiles": "C=CCn1c(COc2cccc(C)c2C)nnc1SCC(=O)N1CCN(c2ccccc2)CC1", "Potency": "inconclusive [inhibitor, single point]"}
{"smiles": "COc1cccc(C(=O)c2sc(Nc3ccc(F)c(Cl)c3)nc2N)c1", "Potency": "inactive"}
{"smiles": "C[C@H](CO)N1C[C@H](C)[C@@H](CN(C)C(=O)c2cnccn2)Oc2ncc(Br)cc2C1=O", "Potency": "inactive"}
{"smiles": "COCCCn1c(SCC(=O)N2CCOCC2)nc2cc(Cl)ccc2c1=O", "Potency": "inactive"}
{"smiles": "Cc1ccc(N2C(=O)c3ccccc3C2Nc2cccnc2)nc1", "note": "(stereo unspecified)", "Potency": "active: 25.9 µM"}
{"smiles": "CC1(C)CC(=O)C=C(c2ccc(I)cc2)C1", "Potency": "inconclusive [inhibitor, single point]"}
{"smiles": "N/C(=N\\OC(=O)c1ccc2ccccc2c1)c1ccccc1Cl", "Potency": "inactive"}
{"smiles": "O=C(NCC1(N2CCOCC2)CCCCC1)c1cccc(S(=O)(=O)Nc2ccc(F)cc2)c1", "Potency": "inconclusive [inhibitor, single point]"}
{"smiles": "Clc1ccc(CNCCCSc2ncccn2)cc1", "Potency": "inconclusive [inhibitor, single point]"}
{"smiles": "CCC/C=C(\\CCC)C(NS(=O)(=O)c1cccc2cccnc12)c1ccc(C(=O)OC)cc1", "note": "(stereo unspecified)", "Potency": "active: 23.1 µM"}
{"smiles": "Cc1ccc(S(=O)(=O)NNC(=S)NC(=O)c2ccc([N+](=O)[O-])cc2)cc1", "Potency": "inactive"}
{"smiles": "CCc1nc2cc(C)nn2c2nc3ccccc3n12", "Potency": "inconclusive [inhibitor, single point]"}
{"smiles": "Cc1sccc1/C=N/NC(=O)c1cccc2ccccc12", "Potency": "inconclusive [inhibitor, full curve]"}
{"smiles": "CCC1CCCCN1CCCNC(=O)c1ccc2c(c1)sc1nc(-c3ccc(F)cc3)cn12", "note": "(stereo unspecified)", "Potency": "active: 2.59 µM"}
{"smiles": "CCn1c(SCC(=O)NC(=O)Nc2ccc3c(c2)OCCO3)nnc1-c1cccs1", "activity change, negative = growth inhibition": "inconclusive: -31.6% [inhibitor]"}
{"smiles": "O=C1CCCN1CCCNc1ncnc2c1cnn2-c1ccc(Cl)cc1", "Potency": "inconclusive [inhibitor, single point]"}
{"smiles": "COC(=O)c1sc(NC(=O)CSc2nc3cccnc3n2C)nc1C", "Potency": "inactive"}
{"smiles": "CCCCn1c2ccccc2c2cc(CC(N)=O)ccc21", "Potency": "inconclusive [inhibitor, single point]"}
{"smiles": "Cc1ccc(C)c(NC(=O)CSc2nnc(C)n3c2cc2occc23)c1", "Potency": "inconclusive [inhibitor, single point]"}
{"smiles": "O=C(NCc1ccc(Cl)cc1)C(=O)NCC1OCCCN1S(=O)(=O)c1cccs1", "note": "(stereo unspecified)", "Potency": "inconclusive [inhibitor, single point]"}
{"smiles": "COc1ccc(-c2nn(CCC#N)cc2C(=O)Nc2cccc(C(=O)O)c2)cc1[N+](=O)[O-]", "Potency": "inactive"}
{"smiles": "Cc1cc2cc(CCNC(=O)CC(C)(C)C)c(=O)[nH]c2cc1C", "Potency": "inconclusive [inhibitor, single point]"}
{"smiles": "COc1ccc(C2c3c(-c4ccccc4O)n[nH]c3C(=O)N2CCc2ccccc2)cc1", "note": "(stereo unspecified)", "Potency": "active: 16.4 µM"}
{"smiles": "CC(C)C[C@H]1CN=C(Nc2ccccc2)N1CC1CCC(C(C)(C)C)CC1", "note": "(stereo partly specified)", "Potency": "active: 6.51 µM"}
{"smiles": "CCCCOc1ccc(NC(=O)CN2CCN(C(=O)OCC)CC2)cc1", "activity change, negative = growth inhibition": "inconclusive: -30.4% [inhibitor]"}
{"smiles": "CCOc1ccc(N2CC(C(=O)NCCN3C(=O)S/C(=C\\c4cccnc4)C3=O)CC2=O)cc1", "note": "(stereo unspecified)", "Potency": "inactive"}
{"smiles": "COc1ccccc1NC(=O)CN1CCN(CC(=O)Nc2ccc(F)c(F)c2)CC1", "Potency": "inconclusive [inhibitor, single point]"}
{"smiles": "Clc1cccc(OCCCCN2CCCCC2)c1", "Potency": "inconclusive [inhibitor, partial curve]"}
{"smiles": "COc1cc(OC)cc(-c2nc3ccccc3c(=O)n2OC(=O)c2ccccc2C)c1", "Potency": "inactive"}
{"smiles": "CC(Cc1cccs1)NC(=O)Nc1ccc(F)cc1", "note": "(stereo unspecified)", "Potency": "inconclusive [inhibitor, single point]"}
{"smiles": "COC(=O)c1ccccc1NC(=O)c1nc(S(=O)(=O)Cc2ccccc2)ncc1Cl", "Potency": "active: 1.3 µM"}
{"smiles": "O=S(=O)(Nc1cccc(-c2ccc(N3CCOCC3)nn2)c1)c1cc(C(F)(F)F)ccc1Cl", "Potency": "inconclusive [inhibitor, single point]"}
{"smiles": "CCCS(=O)(=O)c1c(S(=O)(=O)CCC)c2c3ccccc3ccn2c1C(N)=O", "Potency": "inconclusive [inhibitor, single point]"}
{"smiles": "CCCCC1CC2=C(C(=O)OC(C)(C)O2)C(c2ccc(Cl)cc2)O1", "note": "(stereo unspecified)", "Potency": "inconclusive [inhibitor, single point]"}
